Source: PubChem BioAssay AID488969 (Vanderbilt High Throughput Screening Facility, 2010)
The full ranking holds about 110,000 compounds; the median of “z-score” is about -0.1, and the highest 2% start at about 2. The list shows a part of the results. Active and inactive are the calls of the source.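 How the source made its calls: active means z-score in the third read window above 3 or below -3; inactive means the rest.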

Each compound was assayed against Metabotropic glutamate receptor 8 (Rattus norvegicus) (UniProt P70579) (assay: rat mGluR8 modulators via GIRK flux, primary screen, cell-based, thallium flux, HTS (AID 488969)). Conditions: HEK293 rat mGluR8, GIRK (G protein-gated inwardly rectifying potassium channel) thallium flux, FluoZin2; at 10 µM; stronger effect = higher value; submaximal glutamate (EC20) added with thallium.
Sequence of UniProt P70579 (P70579 whole entry, looked up): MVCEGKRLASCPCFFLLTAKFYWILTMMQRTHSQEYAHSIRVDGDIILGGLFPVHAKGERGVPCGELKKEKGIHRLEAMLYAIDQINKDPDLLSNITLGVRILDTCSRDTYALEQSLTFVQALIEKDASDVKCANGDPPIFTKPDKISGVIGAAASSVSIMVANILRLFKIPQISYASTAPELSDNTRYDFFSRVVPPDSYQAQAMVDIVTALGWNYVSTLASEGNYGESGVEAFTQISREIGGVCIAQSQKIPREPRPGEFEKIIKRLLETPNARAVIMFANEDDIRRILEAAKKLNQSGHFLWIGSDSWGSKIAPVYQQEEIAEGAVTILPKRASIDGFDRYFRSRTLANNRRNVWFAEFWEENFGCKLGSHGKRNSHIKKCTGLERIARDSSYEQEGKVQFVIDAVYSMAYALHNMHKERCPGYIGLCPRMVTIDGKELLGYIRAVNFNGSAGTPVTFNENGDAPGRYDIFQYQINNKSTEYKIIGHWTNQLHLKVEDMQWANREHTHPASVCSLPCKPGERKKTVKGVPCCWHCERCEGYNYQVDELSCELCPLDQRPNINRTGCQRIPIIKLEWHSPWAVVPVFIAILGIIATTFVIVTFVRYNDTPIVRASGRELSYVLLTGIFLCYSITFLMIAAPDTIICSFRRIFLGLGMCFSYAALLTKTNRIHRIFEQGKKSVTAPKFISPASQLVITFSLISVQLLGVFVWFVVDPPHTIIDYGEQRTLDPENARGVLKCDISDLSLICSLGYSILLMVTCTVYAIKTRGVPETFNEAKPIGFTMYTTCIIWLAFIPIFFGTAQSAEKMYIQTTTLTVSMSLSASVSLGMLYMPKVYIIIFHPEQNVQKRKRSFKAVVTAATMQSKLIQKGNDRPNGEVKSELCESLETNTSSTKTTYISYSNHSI
With `c1ccc(-c2cc3c(-n4cccc4)ncnc3o2)cc1` the z-score was -0.503.
Work on `Cc1ccc(-c2cnc(NC(=O)CCC(=O)N(C)Cc3ccccc3)n2C)cc1` yielded a z-score of -0.765.
For `Fc1ccccc1NC(=S)NN(Cc1ccccc1)c1ccccc1`, the z-score was active: 5.03.
Work on `CCOC(=O)c1c(C)[nH]c(C(=O)CSc2nnc(-c3ccncc3)n2CC)c1C` yielded a z-score of -0.926.
`CCCOc1c(Br)cc(C2C3=C(CCCC3=O)N(C)C3=C2C(=O)CCC3)cc1OC` showed a z-score of -0.905.
`COc1ccc(N2CCn3c2nc2c3c(=O)n(CCCc3ccccc3)c(=O)n2C)c(OC)c1` was tested, and the z-score was -1.93.
`NC(=O)c1ccsc1NC(=O)COC(=O)c1ccccc1NCc1ccco1` gave a z-score of -0.663.
Compound `COc1ccccc1CNc1nc2ccccc2n1CCN1CCCCC1` has a z-score of 0.582.
In the case of `CCOC(=O)C(=CNc1ccc2c(c1)nnn2-c1ccc(Cl)cc1)C(=O)OCC`, the z-score is reported as -0.751.
In the case of `Cc1ccc(Cc2cnc(NC(=O)C3CCCO3)s2)cc1` (stereo unspecified), the z-score is reported as -0.316.
For `CCOc1ccc(CNC(=O)CCn2c(=O)oc3ccccc32)cc1OC`, the z-score was 0.903.
`N#CC(c1cccc(Cl)c1)c1ncc(C(F)(F)F)cc1Cl` (stereo unspecified) was tested, and the z-score was -0.146.
`Cn1c2c(c(=O)n(C)c1=O)CN(Cc1ccc(F)cc1)CN2` was tested, and the z-score was 0.281.
`CN(CC(=O)NCc1ccc(Cl)cc1)S(=O)(=O)c1cccc2nsnc12` showed a z-score of -0.323.
`Cc1cccc(C(=O)Nc2cc(OCc3cccc(F)c3)c(Cl)cc2Cl)c1` showed a z-score of 0.182.
Work on `COc1ccc(S(=O)(=O)NC(Cc2cnc[nH]2)C(=O)O)cc1` (stereo unspecified) yielded a z-score of -0.0594.
In the case of `CCOc1ccc(NC(=O)CCn2cccc2)cc1`, the z-score is reported as -0.228.
Work on `Cc1c(C(=O)N2CCCC2)sc(NC(=O)c2cccc(Cl)c2)c1C#N` yielded a z-score of -2.18.
In the case of `CCN1C(=O)C(CC(=O)N2CCN(C(c3ccccc3)c3ccccc3)CC2)N(CC)C1=O` (stereo unspecified), the z-score is reported as -0.00737.
With `C=CCn1c(SCC(=O)c2[nH]c(C)c(C(=O)OC)c2C)nc2scc(-c3ccc(OC)c(OC)c3)c2c1=O` the z-score was -0.0245.
With `COc1ccc(-c2noc(CCCC(=O)NCCc3ccccc3)n2)cc1OC` the z-score was -0.361.
In the case of `CC(Oc1ccc2ccc(=O)oc2c1)C(=O)c1ccccc1` (stereo unspecified), the z-score is reported as 0.00606.
For `CCCCCCCCOC(=O)C1=C(C)Nc2nnnn2C1c1cccs1` (stereo unspecified), the z-score was 0.117.
`CCC(C)NC(=O)CSC1=Nc2ccccc2C2=NC(CC(=O)NCc3ccccc3)C(=O)N12` (stereo unspecified) gave a z-score of -0.278.
For `COCCOC(=O)c1c(C)nc(SCC(=O)Nc2ccc(OC)cc2)c(C#N)c1-c1ccco1`, the z-score was 0.597.
For `CCCCC(CC)CNC(=O)c1cccs1` (stereo unspecified), the z-score was -0.164.
Compound `CCOc1ccc2nc(C)cc(Nc3ccc4c(c3)OCCO4)c2c1` has a z-score of -0.142.
`CCOc1cc(NC(=S)NCc2ccco2)c(OCC)cc1NC(C)=O` was tested, and the z-score was -0.0846.
For `Cc1ccccc1NC(=O)CN(c1ccc(F)cc1)S(C)(=O)=O`, the z-score was 0.203.
In the case of `CN1CCN(c2ccc(S(=O)(=O)N3CCCCC3)cc2NC(=O)c2ccc3ccccc3c2)CC1`, the z-score is reported as -0.247.
Compound `COc1ccc(OCCC(=O)OCC(=O)NC(=O)NC(C)(C)C)cc1` has a z-score of 0.144.
In the case of `CC1CCCCN1C(=O)CSc1nnc(-c2ccco2)n1CC1CCCO1` (stereo unspecified), the z-score is reported as -0.338.
`COc1cc(NC(=O)CSCC(=O)Nc2cccc(C(F)(F)F)c2)c(Cl)cc1Cl` showed a z-score of -0.193.
`COc1ccc(/C=C/C(=O)N(CC(C)C)CC(C)C)cc1Br` gave a z-score of 0.14.
Compound `Cc1ccc(N2C(=O)/C(=C\c3ccco3)SC2=S)cc1` has a z-score of 0.0852.
`Cc1ccc(CNC(=O)CCNC(=O)c2ccc(Br)o2)cc1` was tested, and the z-score was 0.452.
In the case of `O=C(Nc1ccccc1N1CCCCC1)c1ccc(-c2ccc(Cl)cc2)o1`, the z-score is reported as -0.176.
For `O=c1ccn(Cc2ccccc2)c(=O)n1Cc1ccccc1`, the z-score was -0.295.
In the case of `CCc1ccc(C(=O)NC(CCSC)C(=O)O)cc1` (stereo unspecified), the z-score is reported as 0.0962.
Work on `COc1ccc(/C(C)=N\Nc2nc(-c3ccc(Cl)cc3)cc(C(F)(F)F)n2)cc1OC` yielded a z-score of -0.264.
Compound `CN(C1CCS(=O)(=O)C1)S(=O)C12CC3CC(CC(C3)C1)C2` (stereo unspecified) has a z-score of 0.236.
In the case of `COc1ccc(C(=O)Oc2cc(/C=N/NC(N)=S)ccc2OC)cc1`, the z-score is reported as -0.115.
`COc1ccc(OCc2nc3ccc(S(=O)(=O)Nc4ccccc4Cl)cc3[nH]2)cc1` was tested, and the z-score was -0.822.
For `COc1cccc(OC)c1C(=O)N1CC(C)OC(C)C1` (stereo unspecified), the z-score was 0.174.
In the case of `O=C(Nc1ccc2nc3ccccc3nc2c1)c1ccccc1`, the z-score is reported as -0.114.
`Cc1cc(C)c(S(=O)(=O)NCC23C=CC(O2)C2C(=O)N(c4ccccc4)C(=O)C23)c(C)c1` (stereo unspecified) showed a z-score of -0.099.
`O=C1ON=C(c2ccccc2)/C1=C/c1ccc(-c2ccccc2[N+](=O)[O-])o1` gave a z-score of -0.863.
`Brc1ccc(-c2nnc3n2C2(CCCC2)Cc2ccccc2-3)o1` was tested, and the z-score was -0.348.
`CC(=O)NC1CC2CCCC(C1)N2CC(=O)Nc1ccccc1` (stereo unspecified) was tested, and the z-score was -0.137.
In the case of `CCn1c(Cn2nnc(-c3ccccc3)n2)nnc1SCC(=O)Nc1cccc(C(C)=O)c1`, the z-score is reported as -1.29.
With `Cc1c(C(=O)Nc2ccc(Cl)cc2)c2ccccn2c1CCc1ccncc1` the z-score was 0.14.
For `Cc1c(C(=O)OCC2CCCO2)[nH]c2c1C(=O)CC(c1ccco1)C2` (stereo unspecified), the z-score was -0.462.
For `CCCCc1nnc(NC(=O)CSc2nc(C)cc(=O)[nH]2)s1`, the z-score was -1.47.
`Cc1cccc(C)c1NC(=O)C(C)c1ccc(-c2ccccc2)c(F)c1` (stereo unspecified) was tested, and the z-score was -0.337.
Work on `O=C(COC(=O)C1(c2ccccc2F)CCCC1)NC1CCS(=O)(=O)C1` (stereo unspecified) yielded a z-score of 0.705.
`COc1cc2c(=O)n(CCCN3CCOCC3)c(=S)[nH]c2c(OC)c1OC` was tested, and the z-score was 2.07.
Work on `O=C(OCCCc1ccncc1)c1ccc(S(=O)(=O)N2CCOCC2)cc1` yielded a z-score of -0.0438.
`O=C(N/C=N/OCc1cccc(C(F)(F)F)c1)N1OC[C@@H]2COc3ccc4ccccc4c3[C@@H]21` showed a z-score of -0.0982.
For `CCOC(=O)CSc1nnc(-c2ccoc2C)n1-c1ccc(C)cc1`, the z-score was -0.0495.
For `CC(C)c1ccc(Oc2cccc(C(=O)/C(C#N)=C/N(C)C)c2)cc1`, the z-score was -0.286.
Work on `O=S(=O)(Nn1cnnc1)c1ccccc1Cl` yielded a z-score of -0.31.
In the case of `O=C(NCCc1ccccc1)C1CCCN(S(=O)(=O)c2cnc[nH]2)C1` (stereo unspecified), the z-score is reported as 0.503.
With `C/C(NCc1ccccc1)=C(\C#N)C(=O)NCc1ccccc1` the z-score was 0.338.
`COc1ccc(C(=O)NNC(=O)c2cc3cc([N+](=O)[O-])ccc3oc2=O)cc1OC` showed a z-score of -0.394.
`Nc1nnnn1/N=C/c1cc(Cl)cc(Cl)c1OCc1ccc(Cl)cc1Cl` was tested, and the z-score was -0.095.
`O=C1CN(C(=O)CSc2nc(-c3ccccc3)cs2)c2ccccc2N1` showed a z-score of -0.563.
`CCOC(=O)C(C(=O)OCC)C(C#N)c1ccccc1` (stereo unspecified) was tested, and the z-score was -0.148.
Work on `CCOC(=O)c1c(C)oc2c1c(C(c1ccncc1)N1CCOCC1)c(O)c1ccccc12` (stereo unspecified) yielded a z-score of -2.
In the case of `COC(=O)c1c(-c2ccc(OC)c(OC)c2)csc1N`, the z-score is reported as 0.119.
Compound `COC(=O)C1=C(C)NC2=C(C(=O)CCC2)C1c1cn(Cc2ccc(Br)cc2)nc1-c1ccccc1` (stereo unspecified) has a z-score of -0.666.
`Cc1c(NC(=O)c2cc(-c3cccs3)on2)c(=O)n(-c2ccccc2)n1C` was tested, and the z-score was 0.165.
Compound `Cc1ccc2occ(C(c3nnnn3Cc3ccccc3)N3CCOCC3)c(=O)c2c1` (stereo unspecified) has a z-score of -0.343.
`COc1ccccc1/C=C/C(=O)OCCN1CCOCC1` gave a z-score of 0.0154.
`C=CCn1c(SCC(N)=O)nnc1-c1cc(Br)ccc1O` showed a z-score of 0.451.
Compound `Cc1ccc2c(c1)C(c1ccc(N3CCOCC3)cc1)=NNC(c1cccs1)=N2` has a z-score of -0.328.
`Cc1c(NC(=O)Cn2[nH]c(=O)c3ccccc3c2=O)c(=O)n(-c2ccccc2)n1C` gave a z-score of -0.00413.
Work on `COC(=O)C1=C(C)N=c2s/c(=C/c3ccoc3)c(=O)n2C1c1ccccc1` (stereo unspecified) yielded a z-score of -0.423.
In the case of `COc1ccccc1-c1nc2cc3ccccc3cc2nc1-c1ccccc1OC`, the z-score is reported as -0.377.
Compound `Cc1ccc(S(=O)(=O)Nc2nc3ccccc3nc2NCc2ccc3c(c2)OCO3)cc1C` has a z-score of -0.189.
`O=C(CNc1cccc2ccccc12)c1ccc([N+](=O)[O-])cc1` gave a z-score of -0.486.
For `CCCOc1ccc(N2C(=O)CC(SC(=NC)Nc3ccc(F)cc3)C2=O)cc1` (stereo unspecified), the z-score was -0.0553.
With `O=[n+]1cc(-c2ccc(F)cc2)n([O-])c2c1CCC2` the z-score was -0.477.
For `Cc1ccccc1CNC(=O)Nc1cccs1`, the z-score was 1.93.
`COc1cc(C2C(C#N)=C(N)OC3=C2C(=O)CC(C)(C)C3)ccc1OC(=O)N1CCOCC1` (stereo unspecified) gave a z-score of -0.437.
With `COCc1nc2ccccc2n1Cc1ccccc1` the z-score was -0.237.
`CCOC(=O)c1c(NC(=O)C(=O)N/N=C/c2ccccc2O)sc2c1CCCCC2` showed a z-score of -0.233.
Compound `O=S(=O)(NCc1ccccc1)c1cccc2cccnc12` has a z-score of -0.0056.
Compound `O=C(CNC(=S)N(CCCN1CCOCC1)Cc1cccs1)NCCN1CCOCC1` has a z-score of 0.0272.
In the case of `CC1CCN(CCCNC(=O)c2ccc3c(=O)n(CCc4ccccc4)c(=O)[nH]c3c2)CC1`, the z-score is reported as active: 4.09.
Compound `Fc1ccc(CSc2ncnc3c2oc2ccccc23)cc1` has a z-score of -0.0202.
Work on `Cc1[nH]n2c(=O)cc(-c3ccc([N+](=O)[O-])cc3)nc2c1-c1ccccc1` yielded a z-score of -1.93.
With `Cc1ccccc1-c1nc(CN2CCC(C(=O)NCc3cccs3)CC2)c(C)o1` the z-score was -0.0598.
With `O=C(O)CCC(=O)c1c[nH]c2ccccc12` the z-score was 0.136.
In the case of `Cc1cc(NC(=O)CSc2nnc3c(C)cc4cc(C)c(C)cc4n23)no1`, the z-score is reported as -0.47.
Compound `CCCN(CC1CC1)S(=O)(=O)c1ccc(S(N)(=O)=O)cc1` has a z-score of -1.64.
Work on `O=C(NCCCO)/C(=C\C=C\c1ccccc1)NC(=O)c1ccccc1Cl` yielded a z-score of -0.138.
In the case of `O=C(NC(Cc1ccccc1)C(=O)O)/C(=C\c1ccco1)NC(=O)c1ccccc1Br` (stereo unspecified), the z-score is reported as 0.347.
With `CC(C)CC(NC(=O)C1CCCCC1)C(=O)N1CCN(c2ccccn2)CC1` (stereo unspecified) the z-score was 0.13.
`O=C(N/N=C\c1ccccc1)c1sccc1-n1cccc1` gave a z-score of -0.297.
With `Cc1ccc(S(=O)(=O)N2c3ccccc3OCC2c2ccccc2)cc1` (stereo unspecified) the z-score was 0.137.
In the case of `Cc1c(NC(=S)NC(=O)C(C)(C)C)cccc1[N+](=O)[O-]`, the z-score is reported as 0.0334.
`NC(=O)Nn1c(CCC(=O)O)ccc1-c1ccc(F)cc1` showed a z-score of -0.128.
`CCCCN(CC)CCNC(=O)C1c2cc(OC)c(OC)cc2C(=O)N2CCc3ccccc3C12` (stereo unspecified) was tested, and the z-score was 0.236.
Compound `CC(C)C(=O)NC(=S)Nc1ccc(S(=O)(=O)NC(C)(C)C)cc1` has a z-score of -0.00444.
`CCOC(=O)c1sc2nc3n(c(=O)c2c1C)CCCCC3` gave a z-score of 0.467.
Work on `Cc1cc(C)c2c3c(sc2n1)C(c1cccc(F)c1)C(C#N)=C(N)O3` (stereo unspecified) yielded a z-score of 0.00825.
